The supplement of paper PMC12297408
Where a name gives a salt, the structure may show the parent alone. About 40 (3%) of roughly 1,300 compounds showed activity. The list shows a part of the results.

Tested on: Plasmodium falciparum NF54/iGP1_RE9H ulg8 stage V gametocytes
Assay: gametocyte viability (luciferase signal relative to DMSO control) (% of DMSO control); higher = less gametocytocidal activity, active = 50 or less
Conditions: exposure time: 72 h
In short: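 NF54/iGP1_RE9Hulg8 stage V gametocytes (day 12; ~2.5% gametocytemia, 3% hematocrit) in medium with 0.5% Albumax II were added to 96-well plates of nanolitre-spotted compounds (10 mM DMSO stocks), giving 10 µM or 1 µM, one well each. Plates were incubated 72 h at 37 °C. Then 90 µl was mixed with 10 µl D-luciferin (30 mg/ml) and luminescence was read on an IVIS Lumina II. Viability is relative to the mean of plate DMSO vehicle controls.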

O=C(N[C@H](CO)[C@H](O)c1ccc([N+](=O)[O-])cc1)C(Cl)Cl [Chloramphenicol]
gametocyte viability (concentration: 1 µM): inactive: 82 | gametocyte viability (concentration: 10 µM): inactive: 80

Cc1ccc2c(c1)c1c3n2CCNC3CCC1 (stereo unspecified) [Pirlindole mesylate]
gametocyte viability (concentration: 1 µM): inactive: 88.8 | gametocyte viability (concentration: 10 µM): inactive: 83.2

C=C1/C(=C\C=C2/CCC[C@]3(C)[C@@H]([C@H](C)CCCC(C)C)CC[C@@H]23)C[C@@H](O)C[C@@H]1O [Alfacalcidol]
gametocyte viability (concentration: 1 µM): inactive: 85.7 | gametocyte viability (concentration: 10 µM): inactive: 78.6

CCOc1ccc2ccccc2c1C(=O)N[C@@H]1C(=O)N2[C@@H]1SC(C)(C)[C@@H]2C(=O)O [Nafcillin sodium salt monohydrate]
gametocyte viability (concentration: 1 µM): inactive: 99.2 | gametocyte viability (concentration: 10 µM): inactive: 95.3

CN(C)C/C=C(/c1ccc(Br)cc1)c1cccnc1 [Zimelidine dihydrochloride monohydrate]
gametocyte viability (concentration: 1 µM): inactive: 86.1 | gametocyte viability (concentration: 10 µM): inactive: 85.7

CC(C)(CO)C(O)C(=O)NCCCO (stereo unspecified) [Panthenol (D)]
gametocyte viability (concentration: 1 µM): inactive: 87.2 | gametocyte viability (concentration: 10 µM): inactive: 88.7

CCN(CC)CCNC(=O)c1cc(Cl)c(N)cc1OC [Metoclopramide monohydrochloride]
gametocyte viability (concentration: 1 µM): inactive: 85 | gametocyte viability (concentration: 10 µM): inactive: 84.7

Cn1cnc2c1c(=O)[nH]c(=O)n2C [Theobromine]
gametocyte viability (concentration: 1 µM): inactive: 88.2 | gametocyte viability (concentration: 10 µM): inactive: 92.5

COc1ccccc1Oc1c(NS(=O)(=O)c2ccc(C(C)(C)C)cc2)nc(-c2ncccn2)nc1OCCO [Bosentan]
gametocyte viability (concentration: 1 µM): inactive: 82.9 | gametocyte viability (concentration: 10 µM): inactive: 81.5

Nc1ccccc1S(N)(=O)=O [2-Aminobenzenesulfonamide]
gametocyte viability (concentration: 1 µM): inactive: 98 | gametocyte viability (concentration: 10 µM): inactive: 95.8

CC(C)[N+](C)(CCOC(=O)C1c2ccccc2Oc2ccccc21)C(C)C [Propantheline bromide]
gametocyte viability (concentration: 1 µM): inactive: 95.4 | gametocyte viability (concentration: 10 µM): inactive: 99.2

CN(C)CCC=C1c2ccccc2COc2ccccc21 [Doxepin hydrochloride]
gametocyte viability (concentration: 1 µM): inactive: 88.6 | gametocyte viability (concentration: 10 µM): inactive: 92.8

C#CCN[C@@H]1CCc2ccccc21 [Rasagiline]
gametocyte viability (concentration: 1 µM): inactive: 82.4 | gametocyte viability (concentration: 10 µM): inactive: 86.2

COc1ccc(-c2cc(=S)ss2)cc1 [Anethole-trithione]
gametocyte viability (concentration: 1 µM): inactive: 81.2 | gametocyte viability (concentration: 10 µM): inactive: 71.8

O=C(O)c1cn(C2CC2)c2cc(N3CCNCC3)c(F)cc2c1=O [Ciprofloxacin hydrochloride hydrate]
gametocyte viability (concentration: 1 µM): inactive: 93.9 | gametocyte viability (concentration: 10 µM): inactive: 92.1

C1CCC(C(CC2CCCCN2)C2CCCCC2)CC1 (stereo unspecified) [Perhexiline maleate]
gametocyte viability (concentration: 1 µM): inactive: 83.4 | gametocyte viability (concentration: 10 µM): inactive: 90

CCc1nc(N)nc(N)c1-c1ccc(Cl)cc1 [Pyrimethamine]
gametocyte viability (concentration: 1 µM): inactive: 79 | gametocyte viability (concentration: 10 µM): inactive: 84.5

CC(=O)[C@@]1(O)CC[C@H]2[C@@H]3C[C@H](C)C4=CC(=O)C=C[C@]4(C)[C@@]3(F)[C@@H](O)C[C@@]21C [Fluorometholone]
gametocyte viability (concentration: 1 µM): inactive: 88.8 | gametocyte viability (concentration: 10 µM): inactive: 90.4

CC(C)NCC(O)COc1ccc(CCOCC2CC2)cc1 (stereo unspecified) [Betaxolol hydrochloride]
gametocyte viability (concentration: 1 µM): inactive: 86.3 | gametocyte viability (concentration: 10 µM): inactive: 78.7

COc1cc(C(=O)NCc2ccc(OCCN(C)C)cc2)cc(OC)c1OC [Trimethobenzamide hydrochloride]
gametocyte viability (concentration: 1 µM): inactive: 84.8 | gametocyte viability (concentration: 10 µM): inactive: 73.9

CCCC1C(=O)N2C(N(C)C)=Nc3ccc(C)cc3N2C1=O (stereo unspecified) [Azapropazone]
gametocyte viability (concentration: 1 µM): inactive: 89.5 | gametocyte viability (concentration: 10 µM): inactive: 87.5

Clc1ccc(C(Cn2ccnc2)OCc2ccsc2Cl)c(Cl)c1 (stereo unspecified) [Tioconazole]
gametocyte viability (concentration: 1 µM): inactive: 86.8 | gametocyte viability (concentration: 10 µM): inactive: 71.1

C[C@](N)(Cc1ccc(O)c(O)c1)C(=O)O [Methyldopa (L,-)]
gametocyte viability (concentration: 1 µM): inactive: 82.6 | gametocyte viability (concentration: 10 µM): inactive: 83.9

c1cnc(N2CCN(Cc3ccc4c(c3)OCO4)CC2)nc1 [Piribedil hydrochloride]
gametocyte viability (concentration: 1 µM): inactive: 92.7 | gametocyte viability (concentration: 10 µM): inactive: 92.5

CCOC(=O)O[C@]1(C(=O)OCCl)CC[C@H]2[C@@H]3CCC4=CC(=O)C=C[C@]4(C)[C@H]3[C@@H](O)C[C@@]21C [Loteprednol etabonate]
gametocyte viability (concentration: 1 µM): inactive: 88.2 | gametocyte viability (concentration: 10 µM): inactive: 85

CCCc1nc2c(C)cc(-c3nc4ccccc4n3C)cc2n1Cc1ccc(-c2ccccc2C(=O)O)cc1 [Telmisartan]
gametocyte viability (concentration: 1 µM): inactive: 80 | gametocyte viability (concentration: 10 µM): inactive: 88.2

CCCCOC(=O)c1ccc(O)cc1 [Butylparaben]
gametocyte viability (concentration: 1 µM): inactive: 84.3 | gametocyte viability (concentration: 10 µM): inactive: 78.7

N=C(N)N1CCc2ccccc2C1 [Debrisoquin sulfate]
gametocyte viability (concentration: 1 µM): inactive: 80.3 | gametocyte viability (concentration: 10 µM): inactive: 79.7

CC(=O)/N=c1/sc(S(N)(=O)=O)nn1C [Methazolamide]
gametocyte viability (concentration: 1 µM): inactive: 80.7 | gametocyte viability (concentration: 10 µM): inactive: 86.9

CCCCC1C(=O)N(c2ccccc2)N(c2ccccc2)C1=O [Phenylbutazone]
gametocyte viability (concentration: 1 µM): inactive: 91 | gametocyte viability (concentration: 10 µM): inactive: 85.4

CNCC[C@@H](Oc1ccccc1C)c1ccccc1 [Tomoxetine hydrochloride]
gametocyte viability (concentration: 1 µM): inactive: 82.6 | gametocyte viability (concentration: 10 µM): inactive: 87.1

O=C(CCCCC(=O)Nc1c(I)cc(I)c(C(=O)O)c1I)Nc1c(I)cc(I)c(C(=O)O)c1I [Iodipamide]
gametocyte viability (concentration: 1 µM): inactive: 92.7 | gametocyte viability (concentration: 10 µM): inactive: 95.8

O=C(O)Cc1cc(I)c(Oc2ccc(O)c(I)c2)c(I)c1 [Tiratricol, 3,3',5-triiodothyroacetic acid]
gametocyte viability (concentration: 1 µM): inactive: 91 | gametocyte viability (concentration: 10 µM): inactive: 93.4

COCCCOc1ccnc(C[S+]([O-])c2nc3ccccc3[nH]2)c1C (stereo unspecified) [Rabeprazole Sodium salt]
gametocyte viability (concentration: 1 µM): inactive: 83.8 | gametocyte viability (concentration: 10 µM): inactive: 80.3

CC(=O)OCC(=O)[C@@]12OC3(CCCC3)O[C@@H]1C[C@H]1[C@@H]3CCC4=CC(=O)C=C[C@]4(C)[C@@]3(F)[C@@H](O)C[C@@]12C [Amcinonide]
gametocyte viability (concentration: 1 µM): inactive: 93.1 | gametocyte viability (concentration: 10 µM): inactive: 92.1

N=C(N=C(N)N)N1CCOCC1 [Moroxidine hydrochloride]
gametocyte viability (concentration: 1 µM): inactive: 83.9 | gametocyte viability (concentration: 10 µM): inactive: 87.9

Cc1c(F)c(N2CCNC(C)C2)cc2c1c(=O)c(C(=O)O)cn2C1CC1 (stereo unspecified) [Grepafloxacin]
gametocyte viability (concentration: 1 µM): inactive: 93.9 | gametocyte viability (concentration: 10 µM): inactive: 95.3

O=C(Nc1ccccc1)OCC(CN1CCCCC1)OC(=O)Nc1ccccc1 (stereo unspecified) [Diperodon hydrochloride]
gametocyte viability (concentration: 1 µM): inactive: 88.6 | gametocyte viability (concentration: 10 µM): inactive: 91.5
